The BET-seq Pho4 binding data (Le et al. 2018)
The list shows a part of the results. Values were computed here from the reads of four pooled replicates and scatter widely.

target: T1, Pho4 (S. cerevisiae) (UniProt P07270); test: relative binding free energy (BET-seq); higher = weaker binding; conditions: reference: library average
T1 sequence: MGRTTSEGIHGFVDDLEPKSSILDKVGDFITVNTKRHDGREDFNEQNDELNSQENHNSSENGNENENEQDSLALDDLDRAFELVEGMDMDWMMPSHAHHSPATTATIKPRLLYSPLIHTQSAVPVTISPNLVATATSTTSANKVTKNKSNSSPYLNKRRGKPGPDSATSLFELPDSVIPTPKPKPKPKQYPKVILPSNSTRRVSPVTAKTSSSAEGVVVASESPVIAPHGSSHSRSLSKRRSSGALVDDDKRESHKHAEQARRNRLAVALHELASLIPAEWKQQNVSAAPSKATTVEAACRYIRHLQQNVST

Relative binding free energy, 0.1 kcal/mol:
TTTAACACGTGAGCGT
GTTCACACGTGTAGTA
CTTTGCACGTGTAGCG
AATGTCACGTGTGAGA
GGGCGCACGTGAGGGC

Relative binding free energy, 0.28 kcal/mol:
AGGTTCACGTGTCGCG
GCCTTCACGTGTGTGG
ACGGGCACGTGAAGAG
AATCTCACGTGAGTTG
AGGTTCACGTGAAGAT

Relative binding free energy, -0.01 kcal/mol:
GGTGACACGTGGTTGC
CGTGTCACGTGTGTGC
TTGGACACGTGGGTGA
TAGGTCACGTGCTTGA
GTCTGCACGTGGCTTG

Relative binding free energy, 0.08 kcal/mol:
TGAGTCACGTGTTGGC
ATATGCACGTGATATT
TCTGTCACGTGTAATT
AGGTGCACGTGTGGAC

Relative binding free energy, 0.27 kcal/mol:
GAGTTCACGTGCAGTT
GCTGTCACGTGTAGTA
TGTTTCACGTGCTGGG
CTAGTCACGTGGAAGG

Relative binding free energy, 0.14 kcal/mol:
GGCTTCACGTGGGCGA
TGCATCACGTGGTGGA
AGATGCACGTGAGGTG
GGTCACACGTGGTAGG
TGGGGCACGTGTAAGA
GACGTCACGTGCGTTG

Relative binding free energy, 0.03 kcal/mol:
TTTGACACGTGGAGTA
TGAGTCACGTGGGCTC

Relative binding free energy, 0.02 kcal/mol:
CGGGACACGTGGTTAG

Relative binding free energy, -0.07 kcal/mol:
CAGTGCACGTGGAGTG
AGCAGCACGTGGAGTG
GAAGGCACGTGGTAGT

Relative binding free energy, 0.19 kcal/mol:
AGGGTCACGTGATTCT
GCGTACACGTGTGAGT
CATTTCACGTGGGCGG
AAGGTCACGTGACTTG
TTGTCCACGTGCGGAT
TGGAACACGTGTAATT

Relative binding free energy, -0.1 kcal/mol:
AGGCCCACGTGGAGGG

Relative binding free energy, -0.21 kcal/mol:
TGGTGCACGTGGTCTC

Relative binding free energy, -0.28 kcal/mol:
ATGTGCACGTGGTTCT
ATGGGCACGTGCATGT

Relative binding free energy, -0.33 kcal/mol:
GGAGGCACGTGCTCGG

Relative binding free energy, 0 kcal/mol:
CGTGGCACGTGTGCCG
TTCGTCACGTGGGGAC
TACGTCACGTGTTTAT
AGGTACACGTGGGTTA
TATGACACGTGTAGTA

Relative binding free energy, 0.39 kcal/mol:
GGTTTCACGTGTTGTG

Relative binding free energy, -0.29 kcal/mol:
CTTGGCACGTGGGTAG

Relative binding free energy, -0.15 kcal/mol:
AGATGCACGTGGGCAG
TGGGCCACGTGTTGAA
GGTAGCACGTGCAGTT

Relative binding free energy, 0.32 kcal/mol:
TTGTTCACGTGTTAAA
GACTTCACGTGTGTAG
AGATTCACGTGATGTA
TGTTTCACGTGTAAGT

Relative binding free energy, 0.12 kcal/mol:
TTTTACACGTGGAGAA
GAAGTCACGTGGATGT
TTATGCACGTGGAGAC
TGCGACACGTGTAAGG

Relative binding free energy, 0.3 kcal/mol:
GGTTTCACGTGAGCAG
CTGTTCACGTGGTGGC
TAGTTCACGTGGTTGA
TTATACACGTGAGTCG
TGGTGCACGTGAACTG
TTTGTCACGTGTGGAT

Relative binding free energy, -0.03 kcal/mol:
TGTGTCACGTGTTCCT
GCTTGCACGTGGTGGC
CCCGGCACGTGTGGGT
TAATACACGTGTATTT

Relative binding free energy, 0.09 kcal/mol:
TTGGACACGTGCAGCT
GGATACACGTGCTGTA
ACAAGCACGTGATTGG
CTGGTCACGTGGAGAG
GAGTACACGTGGCTTT
AAGTTCACGTGGGTAG
TTAATCACGTGGCGTG
GCTGTCACGTGGTTTA
AGGTACACGTGTCGGA

Relative binding free energy, -0.09 kcal/mol:
GTGAGCACGTGGTGGG
TCGCTCACGTGGGGGT
AAGGGCACGTGCGAGT
AGTATCACGTGGGATA
GCATGCACGTGGTAGG
GATGGCACGTGGACTG
CTAGGCACGTGTGTAG

Relative binding free energy, 0.21 kcal/mol:
AGTCGCACGTGAGTAG
TTAATCACGTGGAGGG
TTAGTCACGTGTGGAG
TTAGGCACGTGAGTAA
GAACGCACGTGAGTGT

Relative binding free energy, 0.26 kcal/mol:
GTAGTCACGTGATGAT
TTCGTCACGTGTAGCT
ACGTTCACGTGTGAGT
TAGTACACGTGAATGT

Relative binding free energy, 0.16 kcal/mol:
TTTTACACGTGTGGTG
GTTGTCACGTGTACGT
CGATGCACGTGAGGTT
TTTTGCACGTGTGGGT
TGTCTCACGTGTAAGA
CAGATCACGTGGAGTT
TGATTCACGTGGGCAG

Relative binding free energy, 0.25 kcal/mol:
AGTGTCACGTGTAAGA
AATTTCACGTGTGATA

Relative binding free energy, -0.19 kcal/mol:
CGGAGCACGTGGATGG
TATTGCACGTGGGTCT
GGTGGCACGTGTCTTA
AAGTGCACGTGGGTAA
TGTGGCACGTGCGGTC

Relative binding free energy, 0.24 kcal/mol:
TTGGCCACGTGAGGAA
GGTCGCACGTGAGGAG
TGAGACACGTGAATGT

Relative binding free energy, 0.05 kcal/mol:
TGTCCCACGTGAGGGG
TGTGGCACGTGACGCG
ATATGCACGTGGATAG
CTTGTCACGTGCAGGT
TGGATCACGTGCCGTT
GTGGGCACGTGTCACG
ATTTACACGTGGCTTA

Relative binding free energy, -0.02 kcal/mol:
GGTAGCACGTGCGGGG
ATTTACACGTGTAGGA
AACTGCACGTGGTAGT
GGATGCACGTGTGTTA

Relative binding free energy, -0.05 kcal/mol:
ATTGGCACGTGTCGAA
AAATGCACGTGCAGTG
TTATACACGTGTGTTC
TGGTGCACGTGGCAAT
GGTTGCACGTGGGTGC

Relative binding free energy, 0.15 kcal/mol:
AGTTACACGTGTAGTA
TTGTTCACGTGGCGAA
TGTATCACGTGTGATC
ACTTGCACGTGATTGT

Relative binding free energy, 0.18 kcal/mol:
TATCTCACGTGTGTAT
TGCGTCACGTGTGAGT
ATTGTCACGTGATTCA
GGCTACACGTGTAGTT
TGGAACACGTGGTAAA
GTGGACACGTGATAAG
TCGTACACGTGTGAGG

Relative binding free energy, -0.13 kcal/mol:
CATGTCACGTGGGGGC

Relative binding free energy, 0.44 kcal/mol:
GTTTTCACGTGAGGCG

Relative binding free energy, 0.07 kcal/mol:
TCTAGCACGTGATGTT
TTTTACACGTGGCTGG
CGTCGCACGTGTGGTT
GTTTACACGTGTGTAC

Relative binding free energy, -0.23 kcal/mol:
GGGACCACGTGGGCGT
CTAGGCACGTGCTGGT

Relative binding free energy, -0.26 kcal/mol:
AAGCGCACGTGGGGTG
CGAGGCACGTGGGGAT

Relative binding free energy, -0.16 kcal/mol:
TAAAGCACGTGGGATA
TCTTGCACGTGGGCTG

Relative binding free energy, 0.2 kcal/mol:
GATAGCACGTGGAATT
ATGGTCACGTGTGTTG
GGCTACACGTGTTGGA
TACGTCACGTGTGGAT
TATGTCACGTGTAGCA

Relative binding free energy, 0.35 kcal/mol:
TAATTCACGTGAGGGG
TCGTTCACGTGTAGGG
CTATTCACGTGTTTTT

Relative binding free energy, -0.17 kcal/mol:
TGTGACACGTGGGTCA

Relative binding free energy, 0.33 kcal/mol:
TCTTTCACGTGTTAGT
GGTATCACGTGGAACG

Relative binding free energy, -0.08 kcal/mol:
ATATACACGTGGGTTT
GATGGCACGTGGGAGG
GTATGCACGTGGAGTG
GTTGGCACGTGGAGCG

Relative binding free energy, -0.06 kcal/mol:
TTGTCCACGTGCGTTT
TAGAGCACGTGGTATT
CGTTGCACGTGGTGGT
TGAGACACGTGTCAGG

Relative binding free energy, 0.37 kcal/mol:
GGCTGCACGTGAGATG

Relative binding free energy, 0.38 kcal/mol:
AGTTTCACGTGTCTAT
GTGTTCACGTGCGATT

Relative binding free energy, -0.11 kcal/mol:
ATGTGCACGTGGCCGG
CATAGCACGTGCTGGG

Relative binding free energy, 0.34 kcal/mol:
GTGCACACGTGAAGTG

Relative binding free energy, 0.01 kcal/mol:
TGGACCACGTGGTTTG
AAGTGCACGTGGATGG
GAGTGCACGTGGGTCG
CGGTACACGTGGTAGG
ATGAACACGTGGTGGA
GGTGACACGTGTGTCG
AATTGCACGTGGTGTA

Relative binding free energy, 0.48 kcal/mol:
GTTCTCACGTGTGGCA

Relative binding free energy, -0.12 kcal/mol:
CTGGGCACGTGTGGCT

Relative binding free energy, 0.31 kcal/mol:
TTATACACGTGAAGTG

Relative binding free energy, 0.04 kcal/mol:
TGAGGCACGTGTGGGG
TCGGGCACGTGTGGGC

Relative binding free energy, 0.4 kcal/mol:
CGCTTCACGTGGATTG
TGGTTCACGTGCGCTT

Relative binding free energy, -0.04 kcal/mol:
TTTACCACGTGTTGTG
GTGCACACGTGTAGGG
GGTTGCACGTGGTGTA
TTATGCACGTGCCGGT
GTGAGCACGTGTTGAT
AGCGGCACGTGTGGGG
CGGTACACGTGGCTTG

Relative binding free energy, -0.2 kcal/mol:
AGTGGCACGTGCAGCG

Relative binding free energy, 0.06 kcal/mol:
GCTGTCACGTGGGCTA
ATGGACACGTGTTAAG
GAAGTCACGTGTGCGG
AATGTCACGTGTAATT
GATTGCACGTGCTGGA
TTTGACACGTGTTTTA

Relative binding free energy, 0.17 kcal/mol:
GGTATCACGTGCGGGG

Relative binding free energy, 0.22 kcal/mol:
TTGTGCACGTGAATGC
TCTTTCACGTGGGCAT
GGGGTCACGTGCTTGA
GGTTACACGTGTCGTT
ATGTACACGTGAATGT

Relative binding free energy, 0.42 kcal/mol:
ATGTTCACGTGTTTTC

Relative binding free energy, 0.11 kcal/mol:
TTAATCACGTGTTTAC
CGTTTCACGTGTGGTC
AAAGGCACGTGGATTT
GGTTCCACGTGGTTAT

Relative binding free energy, 0.29 kcal/mol:
ATTTTCACGTGTTGCG
GTGGTCACGTGAGACT

Relative binding free energy, -0.18 kcal/mol:
GCTAGCACGTGGGTAG
GGGAGCACGTGGTGTC

Relative binding free energy, 0.13 kcal/mol:
GATTGCACGTGTGGTT
GATTGCACGTGATTAT
CGTTTCACGTGGTGAG
TCCGGCACGTGAGTTG
ACTGGCACGTGAGGGT
ATATTCACGTGGTGTT
GGTGGCACGTGAGATG
